# Test results from article PMC4336329 (PLoS ONE, 2015).
# In all, about 310,000 compounds went through this assay and about 2,200 (0.71%) showed an effect of 50% or more. The effect is printed as a negative number. The list shows a part of the results.
# Target: human ether-à-go-go-related gene (hERG) potassium channel (human, UniProt Q12809)
# Assay: primary screen, population patch clamp on CHO cells stably expressing hERG
# Chain of human ether-à-go-go-related gene (hERG) potassium channel (Q12809 whole entry, looked up): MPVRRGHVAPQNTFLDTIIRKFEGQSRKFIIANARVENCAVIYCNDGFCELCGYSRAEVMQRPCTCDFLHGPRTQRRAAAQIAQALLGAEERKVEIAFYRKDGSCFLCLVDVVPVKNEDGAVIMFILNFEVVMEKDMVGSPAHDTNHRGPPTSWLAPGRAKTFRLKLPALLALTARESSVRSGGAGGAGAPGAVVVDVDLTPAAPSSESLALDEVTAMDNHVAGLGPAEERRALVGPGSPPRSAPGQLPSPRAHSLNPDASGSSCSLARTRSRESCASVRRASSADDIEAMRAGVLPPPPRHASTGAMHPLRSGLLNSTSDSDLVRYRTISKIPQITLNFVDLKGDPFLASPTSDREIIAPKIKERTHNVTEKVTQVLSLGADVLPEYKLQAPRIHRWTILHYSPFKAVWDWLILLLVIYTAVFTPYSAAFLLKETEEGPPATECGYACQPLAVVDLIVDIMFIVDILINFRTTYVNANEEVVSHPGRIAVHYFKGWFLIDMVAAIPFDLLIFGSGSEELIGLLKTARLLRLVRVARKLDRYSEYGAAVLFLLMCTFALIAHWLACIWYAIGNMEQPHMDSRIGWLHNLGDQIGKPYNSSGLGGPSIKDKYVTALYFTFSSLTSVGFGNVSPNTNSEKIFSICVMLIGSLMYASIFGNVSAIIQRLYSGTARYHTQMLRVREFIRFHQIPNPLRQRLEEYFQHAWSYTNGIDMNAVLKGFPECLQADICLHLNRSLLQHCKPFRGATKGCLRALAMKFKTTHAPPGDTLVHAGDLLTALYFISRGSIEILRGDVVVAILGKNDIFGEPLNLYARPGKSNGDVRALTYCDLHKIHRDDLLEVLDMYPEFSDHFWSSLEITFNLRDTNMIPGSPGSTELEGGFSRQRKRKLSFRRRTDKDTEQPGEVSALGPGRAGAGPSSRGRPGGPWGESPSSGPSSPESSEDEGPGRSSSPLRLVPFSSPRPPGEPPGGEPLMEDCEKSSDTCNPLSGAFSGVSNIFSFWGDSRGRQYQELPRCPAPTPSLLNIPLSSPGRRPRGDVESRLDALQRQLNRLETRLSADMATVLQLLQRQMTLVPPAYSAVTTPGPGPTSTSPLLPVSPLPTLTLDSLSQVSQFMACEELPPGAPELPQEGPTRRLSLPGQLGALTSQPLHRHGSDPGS
row,SMILES,"hERG current change (%, negative = inhibition) at 1uM"
1,CCOc1ccc(N2C(N)=NC(N)=NC2(C)C)cc1.Cl,-1.57%
2,Cc1cc(C)n2nc(C(=O)Nc3cccnc3)nc2n1,0.504%
3,C(=N\N(Cc1ccccc1)c1ccccc1)/c1cccnc1,10.3%
4,O=C(OCC(=O)N(C1CCCCC1)C1CCCCC1)c1ccco1,9.71%
5,O=C(CSc1nnc(SCc2cccc3ccccc23)s1)N/N=C/c1c[nH]c2ccccc12,-0.74%
6,CC(C)NC(=O)[C@H](CSCc1ccccc1)N1Cc2ccccc2C1=O,-13%
7,CC(C)(C)C(=O)NNC(=O)c1cc(C(C)(C)C)nn1Cc1ccccc1,7.83%
8,COc1ccc(C(C(=O)NCc2ccccc2)N(C(=O)c2snc(C(N)=O)c2N)C2CCCC2)cc1O (stereo not drawn),-8.53%
9,Cc1ccc(OCc2nnc(SCC(=O)N3C(C)CCCC3C)o2)cc1 (stereo not drawn),10.8%
10,O=C1C2C3C=CC(CO)(O3)C2C(=O)N1c1ccc(-c2ccccc2)cc1 (stereo not drawn),12.7%
11,Cc1ccc(NS(=O)(=O)c2cc([N+](=O)[O-])ccc2NNC(=S)Nc2cccc(Cl)c2)c(C)c1,7.69%
12,CCN1C(=O)CC(N2CCN(c3ccc(C(=O)c4ccncc4)cc3)CC2)C1=O (stereo not drawn),18%
13,CCN(CC#CCC(O)(c1ccccc1)c1ccccc1)C(C)C.Cl,3.1%
14,Cc1ccc(/C=C/C(=O)Nc2ccc(S(N)(=O)=O)cc2)o1,7.37%
15,O=C1CN(C(=O)NCC(=O)N2CCCC2)c2ccccc2N1,16.9%
16,Cc1[nH]c(-c2ccc(F)cc2)cc1C(=O)N1CCN(c2ccc(Cl)cc2)CC1,10.5%
17,COc1ccc(CC(=O)Nc2c3c(nn2C(C)(C)C)CS(=O)(=O)C3)cc1OC,4.43%
18,O=C(NCc1ccccc1)NC(=O)c1ccccc1,-13.2%
19,Cc1c(-n2c(SCC(=O)C(C)(C)C)nc3ccccc3c2=O)c(=O)n(-c2ccccc2)n1C,6.58%
20,N#C/C(=C(/O)c1ccc([N+](=O)[O-])s1)c1nc2ccccc2[nH]1,12.4%
21,Cc1cc(N2C3CCC2CC(O)(c2ccc(F)cc2)C3)nc(-c2ccccc2)n1 (stereo not drawn),9%
22,COc1cc2c(cc1OC)C(C(=O)NC(C)c1ccccc1)CC(=O)N2 (stereo not drawn),15.5%
23,O=C(Cc1ccc(F)cc1)Nc1nccs1,9.15%
24,COc1ccc(-c2c(C)nn(-c3ccccc3)c2N)cc1,-0.597%
